Patent publication US7455984B2, “Immunoreactive and immunotherapeutic molecules” (The Walter and Eliza Hall Institute of Medical Research, priority 1995, dated 2008)

Key:
[1] = system: PBMCs from IDDM at-risk and HLA-DR-matched controls; test: T-cell proliferation ([3H]thymidine uptake after 6 days), second cohort of 18 pairs; assay type: cell-based, human; conditions: p=0.003
[2] = system: PBMCs from IDDM at-risk and HLA-DR-matched controls; test: T-cell cytokine secretion assay, IFN-γ by ELISA; conditions: media sampled after 2 days; 18 pairs; p=0.005
Description: (§1) In a second cohort of 18 paired IDDM at-risk and HLA-DR-matched controls, PBMCs indicated as per Example 3 were incubated with human proinsulin 24-36 and human insulin B chain 1-15 each at 0.5, 5 and 50 μg/ml under the conditions as per Example 3. In addition to harvesting cells for the measurement of proliferation by [^3H] thymidine uptake after 6 days, as per Example 3, incubation media above the cells was sampled after 2 days for the measurement of IFN-γ and interleukin-(IL-) 10 by standard ELISA methods.

[3] = system: PBMCs from IDDM at-risk and HLA-DR-matched controls; test: T-cell cytokine secretion assay, IL-10 by ELISA; conditions: media sampled after 2 days; 18 pairs; p=0.001
Description: as §1

## FFYTPKTRREAED [Proinsulin]
[1]
  Proliferative response of IDDM at-risk subjects versus matched control subjects: significantly greater
[2]
  IFN-γ secretion, IDDM at-risk versus matched control subjects: significantly increased
[3]
  IL-10 secretion, IDDM at-risk versus matched control subjects: significantly increased
